# Some of the results follow.
# B1: Siglec-F (Mus musculus), Q920G3 (protein)
# chain: MRWAWLLPLLWAGCLATDGYSLSVTGSVTVQEGLCVFVACQVQYPNSKGPVFGYWFREGANIFSGSPVATNDPQRSVLKEAQGRFYLMGKENSHNCSLDIRDAQKIDTGTYFFRLDGSVKYSFQKSMLSVLVIALTEVPNIQVTSTLVSGNSTKLLCSVPWACEQGTPPIFSWMSSALTSLGHRTTLSSELNLTPRPQDNGTNLTCQVNLPGTGVTVERTQQLSVIYAPQKMTIRVSWGDDTGTKVLQSGASLQIQEGESLSLVCMADSNPPAVLSWERPTQKPFQLSTPAELQLPRAELEDQGKYICQAQNSQGAQTASVSLSIRSLLQLLGPSCSFEGQGLHCSCSSRAWPAPSLRWRLGEGVLEGNSSNGSFTVKSSSAGQWANSSLILSMEFSSNHRLSCEAWSDNRVQRATILLVSGPKVSQAGKSETSRGTVLGAIWGAGLMALLAVCLCLIFFTVKVLRKKSALKVAATKGNHLAKNPASTINSASITSSNIALGYPIQGHLNEPGSQTQKEQPPLATVPDTQKDEPELHYASLSFQGPMPPKPQNTEAMKSVYTEIKIHKC
# Assays:
# Assay in all cases: glycan array binding signal (z-score within array); higher = stronger binding
# Conditions in all cases: glycan notation: IUPAC condensed, linker removed
# [1] = target: Neu5Ac(a2-6)Gal(b1-4)GlcNAc(b1-2)Man(a1-6)[Gal(b1-4)GlcNAc(b1-2)Man(a1-3)]Man(b1-4)GlcNAc(b1-4)GlcNAc
# How it was run: (§1)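 Negative Z-scores can be read as non-binding. The Z-score is calculated within each array and then averaged across arrays of one protein sequence at different concentrations or buffers and across linkers. Arrays, 3228 in all, were curated from the Consortium for Functional Glycomics database and kept only where the protein sequence was available.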
# [2] = target: Neu5Ac(a2-6)Gal(b1-4)GlcNAc(b1-2)Man(a1-6)[GlcNAc(b1-2)Man(a1-3)]Man(b1-4)GlcNAc(b1-4)GlcNAc
# How it was run: as §1
# [3] = target: Neu5Ac(a2-6)Gal(b1-4)GlcNAc(b1-2)Man(a1-6)[Man(a1-3)]Man(b1-4)GlcNAc(b1-4)GlcNAc
# How it was run: as §1
# [4] = target: Neu5Ac(a2-6)Gal(b1-4)GlcNAc(b1-2)[Neu5Ac(a2-6)Gal(b1-4)GlcNAc(b1-4)]Man(a1-3)[GlcNAc(b1-4)][Neu5Ac(a2-6)Gal(b1-4)GlcNAc(b1-2)[Neu5Ac(a2-6)Gal(b1-4)GlcNAc(b1-6)]Man(a1-6)]Man(b1-4)GlcNAc(b1-4)GlcNAc
# How it was run: as §1
# [5] = target: Neu5Ac(a2-6)Gal(b1-4)GlcNAc(b1-2)[Neu5Ac(a2-6)Gal(b1-4)GlcNAc(b1-4)]Man(a1-3)[GlcNAc(b1-4)][Neu5Ac(a2-6)Gal(b1-4)GlcNAc(b1-4)Man(a1-6)]Man(b1-4)GlcNAc(b1-4)GlcNAc
# How it was run: as §1
# [6] = target: Neu5Ac(a2-6)Gal(b1-4)GlcNAc(b1-2)[Neu5Ac(a2-6)Gal(b1-4)GlcNAc(b1-6)]Man(a1-6)[Neu5Ac(a2-6)Gal(b1-4)GlcNAc(b1-2)Man(a1-3)][GlcNAc(b1-4)]Man(b1-4)GlcNAc(b1-4)GlcNAc
# How it was run: as §1
# [7] = target: Neu5Ac(a2-6)Gal(b1-4)GlcNAc(b1-3)Gal(b1-3)GlcNAc
# How it was run: as §1
# [8] = target: Neu5Ac(a2-6)Gal(b1-4)GlcNAc(b1-3)Gal(b1-4)GlcNAc
# How it was run: as §1
# [9] = target: Neu5Ac(a2-6)Gal(b1-4)GlcNAc(b1-3)Gal(b1-4)GlcNAc(b1-2)Man(a1-3)[Neu5Ac(a2-6)Gal(b1-4)GlcNAc(b1-3)Gal(b1-4)GlcNAc(b1-2)Man(a1-6)]GalNAc
# How it was run: as §1
# [10] = target: Neu5Ac(a2-6)Gal(b1-4)GlcNAc(b1-3)Gal(b1-4)GlcNAc(b1-3)Gal(b1-4)GlcNAc
# How it was run: as §1
# [11] = target: Neu5Ac(a2-6)Gal(b1-4)GlcNAc(b1-3)Gal(b1-4)GlcNAc(b1-3)Gal(b1-4)GlcNAc(b1-2)Man(a1-3)[Neu5Ac(a2-6)Gal(b1-4)GlcNAc(b1-3)Gal(b1-4)GlcNAc(b1-3)Gal(b1-4)GlcNAc(b1-2)Man(a1-6)]GalNAc
# How it was run: as §1
# [12] = target: Neu5Ac(a2-6)Gal(b1-4)GlcNAc(b1-3)Gal(b1-4)GlcNAc(b1-3)GalNAc
# How it was run: as §1
# [13] = target: Neu5Ac(a2-6)Gal(b1-4)GlcNAc(b1-3)Gal(b1-4)GlcNAc(b1-3)[Neu5Ac(a2-6)Gal(b1-4)GlcNAc(b1-3)Gal(b1-4)GlcNAc(b1-6)]GalNAc
# How it was run: as §1
# [14] = target: Neu5Ac(a2-6)Gal(b1-4)GlcNAc(b1-3)Gal(b1-4)GlcNAc(b1-6)[Gal(b1-3)]GalNAc
# How it was run: as §1
# [15] = target: Neu5Ac(a2-6)Gal(b1-4)GlcNAc(b1-3)Gal(b1-4)[Fuc(a1-3)]GlcNAc(b1-3)Gal(b1-4)[Fuc(a1-3)]GlcNAc
# How it was run: as §1
# [16] = target: Neu5Ac(a2-6)Gal(b1-4)GlcNAc(b1-3)GalNAc
# How it was run: as §1
# [17] = target: Neu5Ac(a2-6)Gal(b1-4)GlcNAc(b1-3)[Neu5Ac(a2-6)Gal(b1-4)GlcNAc(b1-6)]GalNAc
# How it was run: as §1
# [18] = target: Neu5Ac(a2-6)Gal(b1-4)GlcNAc(b1-6)GalNAc
# How it was run: as §1
# [19] = target: Neu5Ac(a2-6)Gal(b1-4)GlcNAc(b1-6)[Gal(b1-3)GlcNAc(b1-3)]Gal(b1-4)Glc
# How it was run: as §1
# [20] = target: Neu5Ac(a2-6)Gal(b1-4)GlcNAc(b1-6)[Gal(b1-3)]GalNAc
# How it was run: as §1
# [21] = target: Neu5Ac(a2-6)Gal(b1-4)GlcNAc6S
# How it was run: as §1
# Neu5Ac(a2-6)GalNAc = target: Neu5Ac(a2-6)GalNAc
# How it was run: as §1
# [22] = target: Neu5Ac(a2-6)GalNAc(b1-4)GlcNAc
# How it was run: as §1
# [23] = target: Neu5Ac(a2-6)GalNAc(b1-4)GlcNAc6S
# How it was run: as §1
# [24] = target: Neu5Ac(a2-6)GlcNAc(b1-4)GlcNAc
# How it was run: as §1
# [25] = target: Neu5Ac(a2-6)GlcNAc(b1-4)GlcNAc(b1-4)GlcNAc
# How it was run: as §1
# Neu5Ac(a2-8)Neu5Ac = target: Neu5Ac(a2-8)Neu5Ac
# How it was run: as §1
# [26] = target: Neu5Ac(a2-8)Neu5Ac(a2-3)Gal(b1-3)GalNAc(b1-4)[Neu5Ac(a2-3)]Gal(b1-4)Glc
# How it was run: as §1
# [27] = target: Neu5Ac(a2-8)Neu5Ac(a2-3)Gal(b1-3)GalNAc(b1-4)[Neu5Ac(a2-8)Neu5Ac(a2-3)]Gal(b1-4)Glc
# How it was run: as §1
# [28] = target: Neu5Ac(a2-8)Neu5Ac(a2-3)Gal(b1-4)Glc
# How it was run: as §1
binder,measurement,setting,value
B1,glycan array binding signal (z-score),[1],0.026
same,glycan array binding signal (z-score),[2],-0.085
same,glycan array binding signal (z-score),[3],-0.131
same,glycan array binding signal (z-score),[4],-0.078
same,glycan array binding signal (z-score),[5],-0.097
same,glycan array binding signal (z-score),[6],-0.145
same,glycan array binding signal (z-score),[7],-0.122
same,glycan array binding signal (z-score),[8],-0.116
same,glycan array binding signal (z-score),[9],-0.145
same,glycan array binding signal (z-score),[10],-0.125
same,glycan array binding signal (z-score),[11],0.301
same,glycan array binding signal (z-score),[12],-0.147
same,glycan array binding signal (z-score),[13],0.011
same,glycan array binding signal (z-score),[14],-0.102
same,glycan array binding signal (z-score),[15],-0.103
same,glycan array binding signal (z-score),[16],-0.092
same,glycan array binding signal (z-score),[17],-0.123
same,glycan array binding signal (z-score),[18],-0.072
same,glycan array binding signal (z-score),[19],-0.064
same,glycan array binding signal (z-score),[20],-0.156
same,glycan array binding signal (z-score),[21],-0.11
same,glycan array binding signal (z-score),Neu5Ac(a2-6)GalNAc,-0.113
same,glycan array binding signal (z-score),[22],-0.121
same,glycan array binding signal (z-score),[23],-0.139
same,glycan array binding signal (z-score),[24],-0.127
same,glycan array binding signal (z-score),[25],-0.123
same,glycan array binding signal (z-score),Neu5Ac(a2-8)Neu5Ac,-0.115
same,glycan array binding signal (z-score),[26],-0.154
same,glycan array binding signal (z-score),[27],-0.022
same,glycan array binding signal (z-score),[28],-0.13

# Source: the supplement of paper PMC8728848
